Measured values published in PubChem BioAssay AID485281 (National Center for Advancing Translational Sciences (NCATS), 2010).
Among all 350,000 compounds or so, about 260 (0.074%) were called active. The shares of active, inactive and inconclusive entries below differ from those in the screen. The call rests on the fitted dose curve; in most records, active means well fitted inhibition curve with a large enough effect; inconclusive means small, poorly fitted or top-dose-only effect; inactive means no such curve, though single readings can be large or run the other way. A potency beside an inconclusive call is a rough fit, not a confirmed value.

Each compound was assayed against Ferritin light chain (Equus caballus) (UniProt P02791) (assay: qHTS Assay for Identification of Novel General Anesthetics). Conditions: apoferritin/1-aminoanthracene competitive binding, fluorescence; activity change, negative = displacement: at 77.5 µM (top of the series).
Summary of the method: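 Read-out: endpoint 1-AMA fluorescence, excitation 380 nm and emission 535 nm, after compounds sit 10 min at room temperature with 10 uM horse-spleen apoferritin in 50% saturated 1-AMA/PBS. Values come from four-parameter Hill fits.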
Further: nearly all actives have a fitted effect of over 20% in size.
On the % scale 0 is the no-effect control and ±100 the full control effect; potency means the concentration at half of the fitted maximal effect; tags describe the fitted curve by direction and shape.

UniProt P02791, sequence (P02791 whole entry, looked up): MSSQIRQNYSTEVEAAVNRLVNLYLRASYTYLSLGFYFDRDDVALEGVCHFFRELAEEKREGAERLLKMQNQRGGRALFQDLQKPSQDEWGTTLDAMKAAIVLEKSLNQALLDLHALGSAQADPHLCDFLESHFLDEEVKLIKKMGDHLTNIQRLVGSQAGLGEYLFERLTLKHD

Activity change, negative = displacement, inactive:
COc1ccccc1-n1cc(C(=O)NCC(=O)N2CCN(c3ccccn3)CC2)c2ccccc2c1=O -14.6%
CCCCN(C(=O)CNC(=O)c1ccco1)C(C(=O)NC1CCCCC1)c1ccc(OC)cc1OC (stereo not drawn) -14.3%
CCOC(=O)c1c(-c2cccs2)csc1NC(C)=O -5.78%
Cn1nnnc1NCc1ccc(Cl)cc1 -4.61%
CCOc1ccc(C2C=C(c3ccccc3)Nc3nnnn32)cc1 (stereo not drawn) 119%
O=C(N/N=C/c1ccc(-c2ccc(S(=O)(=O)Nc3ncccn3)cc2)o1)c1cc2ccccc2cc1O -0.916%
O=C(Cc1ccc(Cl)cc1)Nc1ccc(N2CCN(C(=O)c3ccco3)CC2)cc1 -7.52%
Cc1noc(C)c1CSCC(=O)N1CCN(c2ccc(F)cc2)CC1 -12.4%
CCOC(=O)c1cccc(NC(=O)c2ccc(NC(=O)C3CCCO3)cc2)c1 (stereo not drawn) 2.21%
COc1ccc(C(=O)/C=C/Sc2nc3ccccc3o2)cc1 -9.64%
COc1cccc(N/N=C/c2cccc(Br)c2O)c1 5.97%
Cc1ccc(-n2cccc2/C=C2/C(=N)N3C(=NC2=O)SN=C3S(C)(=O)=O)cc1Cl -10.5%
CC1(C)Cc2c(cnn2-c2ccccc2)-c2c1c1ccccc1n2CC(O)CCl (stereo not drawn) -8%
Cc1oc2c(c1C(=O)Nc1ccc(OC(F)(F)F)cc1)C1=NCCN1C=N2 0.486%
CCOC(=O)CCN1C(=O)[C@H]2[C@H]3[C@H](O)[C@H](O)C/C(=N/OC[C@@H](O)COCc4ccco4)[C@H]3CC[C@@H]2C1=O 10.8% [at 15.3 µM]
CC1CCC(C(C)C)C(OC(=O)COC(=O)c2ccc(N)cc2)C1 (stereo not drawn) -18.2%
COc1ccc(C2(C(=O)Nc3c(C)n(C)n(-c4ccccc4)c3=O)CCCC2)cc1OC -0.397%
O=C(O)/C=C/c1ccc(S(=O)(=O)Nc2ccccc2C(=O)Nc2ccc(F)cc2)cc1 -0.225%

Potency, active:
Nn1c(SCC(=O)Nc2ccc(F)c(F)c2)nnc1C1CCCCC1 4.47 µM

Potency, inconclusive:
CSC(=S)N/N=C(\C)c1ccccc1 44.7 µM [inhibitor, single point]
C/C(=N\NC(=S)NC1CCCCC1)c1ccc(C)o1 35.5 µM [inhibitor, partial curve]
CCCC/C(C)=N/NC(=O)C(=O)NCCc1ccccc1 25.1 µM [inhibitor, partial curve]
Cc1ccc(CNC(=O)C2CC(=O)N(C3CCCCCCC3)C2)cc1 (stereo not drawn) 31.6 µM [inhibitor, partial curve]
O=C(c1ccc2c(c1)OCO2)[C@@H]1[C@@H]2C(=O)N(C3CCCCC3)C(=O)[C@@H]2C2c3ccccc3C=CN21 (stereo partly drawn) 35.5 µM [inhibitor, partial curve]
Cc1ccc2c(c1)c1ncn(CCC3=CCCCC3)c(=O)c1n2C 31.6 µM [inhibitor, partial curve]
CCc1nc(C)ccc1OC(=O)C12CC3CC(CC(C3)C1)C2 28.2 µM [inhibitor, partial curve]
CC12C=C(/C=C/C=C/c3ccccc3)C(C)(C1)C(/C=C/c1ccccc1)CC2=O (stereo not drawn) 3.16 µM [inhibitor, partial curve]
O=C1C=C(c2ccccc2)CCC1 50.1 µM [inhibitor, single point]
O=C(Cc1ccc(Cl)c(Cl)c1)N/N=C/c1cccnc1 31.6 µM [inhibitor, partial curve]
CCOC(=O)c1cnc2c(Cl)c(Cl)ccc2c1N1CCN(C)CC1 35.5 µM [inhibitor, partial curve]
COc1ccc(OCc2cc(C(=O)N3CCSCC3)no2)c(Cl)c1 25.1 µM [inhibitor, partial curve]
CC12COC3(C(=O)Nc4ccccc4F)CC1CCC32C (stereo not drawn) 15.8 µM [inhibitor, partial curve]
Cc1ccc(NC(=O)Cc2csc(-c3ccccc3)n2)cc1F 22.4 µM [inhibitor, partial curve]
Cc1cc(C)c2cccc(NC(=S)NC(=O)c3ccccc3)c2n1 14.1 µM [inhibitor, partial curve]
COc1ccc(OC)c(N2C(=O)C(Cl)=C(N3CCOCC3)C2=O)c1 44.7 µM [inhibitor, single point]
COc1ccc(C(=O)NCC(=O)OCC(=O)N2CC(C)CC(C)C2)cc1 (stereo not drawn) 14.1 µM [inhibitor, partial curve]
CCN(CC(=O)NCC(=O)Nc1cccc(C)c1C)Cc1ccccc1 31.6 µM [inhibitor, partial curve]
CCc1ccc(Cn2nnc(C(=O)Nc3cccc(C)c3)c2N)cc1 4.47 µM [inhibitor, full curve]
Cn1c(NCc2cccc(Cl)c2)nc2ccccc21 25.1 µM [inhibitor, single point]
COC(=O)CC1(c2cccc3ccccc23)C(=O)c2ccccc2C1=O 31.6 µM [inhibitor, partial curve]
CCN1/C(=C\c2ccc3ccccc3[n+]2CC)Sc2cc(C)ccc21 35.5 µM [inhibitor, partial curve]
CSc1ccccc1C(=O)N(C)Cc1ccccc1 28.2 µM [inhibitor, partial curve]
O=S(=O)(Nc1cccc2ccccc12)N1CCCC1 15.8 µM [inhibitor, partial curve]
COc1ccccc1N1CCN(c2nc(N)c(C#N)c(CC#N)c2C#N)CC1 6.31 µM [inhibitor, partial curve]
CCOc1ccc(NS(=O)(=O)c2ccc(OC)c(C)c2)cc1 39.8 µM [inhibitor, partial curve]
O=[N+]([O-])c1cc(-c2nc(-c3ccccc3)no2)ccc1NCc1ccco1 10 µM [inhibitor, partial curve]
Cc1ccc2c(c1)c(N=O)c(O)n2Cc1ccc(Cl)cc1 31.6 µM [inhibitor, partial curve]
Cc1cccc(OCC(=O)NCC(=O)N/N=C/c2ccc([N+](=O)[O-])cc2)c1 12.6 µM [inhibitor, partial curve]
COc1cc(/C=N/N=C(N)N)ccc1OCc1ccc(Cl)cc1 31.6 µM [inhibitor, partial curve]
O=S1(=O)CCOCCCN1Cc1ccc(Cl)cc1 35.5 µM [inhibitor, partial curve]
COc1ccc(OC)c(-n2cc3c(=O)n(C)c(=O)n(C)c3c2)c1 35.5 µM [inhibitor, single point]
Cc1cc(C(F)F)n2ncc(C(=O)NCCc3ccccc3Cl)c2n1 22.4 µM [inhibitor, partial curve]
O=C(CCCSc1nnnn1-c1ccccc1)c1ccc(F)cc1 25.1 µM [inhibitor, partial curve]
C=CCN(CC=C)S(=O)(=O)c1ccc(NC(=S)NC(=O)Cc2ccc(OC)cc2)cc1 5.62 µM [inhibitor, partial curve]
CCOC(=O)C1=C(C)N=C2SC(C(=O)OC)=CC(=O)N2C1c1ccc(F)cc1 (stereo not drawn) 11.2 µM [inhibitor, partial curve]
CCCn1c(NCc2cc(OC)ccc2OC)nc2ccccc21 17.8 µM [inhibitor, partial curve]
CCC(C)NC(=O)CCCn1c(=O)c2cccn2c2ccccc21 (stereo not drawn) 50.1 µM [inhibitor, partial curve, poor fit]
Cc1cc2oc(C(=O)Nc3ccc(S(=O)(=O)Nc4nccs4)cc3)cc(=O)c2cc1Cl 14.1 µM [inhibitor, partial curve]
Cn1cc(/C=C/C(=O)N2CCCC(C(=O)c3ccc(C(C)(C)C)cc3)C2)cn1 (stereo not drawn) 31.6 µM [inhibitor, partial curve]
COc1ccc(NS(=O)(=O)c2cccc(C(=O)NCC(c3ccc(OC)cc3)N3CCOCC3)c2)cc1 (stereo not drawn) 12.6 µM [inhibitor, partial curve]
COc1ccccc1NC(=O)CSc1nc2c(sc3ccccc32)c(=O)n1CCN(C)C 20 µM [inhibitor, partial curve]
O=C1NC2(CCCCCC2)Cc2ccccc21 39.8 µM [inhibitor, partial curve]
O=C(CCc1ccccc1)Nc1nc2n(n1)C(c1ccc(Cl)cc1)CC(=O)N2 (stereo not drawn) 14.1 µM [inhibitor, partial curve]
Cn1cc(S(=O)(=O)N2CCOCC2)cc1C(=O)Nc1cccc(Cl)c1 39.8 µM [inhibitor, single point]
CC(C)CCOc1cccc(OCC(=O)NC2CCS(=O)(=O)C2)c1 (stereo not drawn) 31.6 µM [inhibitor, partial curve]
c1ccc(CCc2ccncc2)cc1 22.4 µM [inhibitor, partial curve]
c1ccc(C2c3[nH]c4ccccc4c3CCN2Cc2cccn2-c2cccnc2)nc1 (stereo not drawn) 17.8 µM [inhibitor, partial curve]
CC1CCc2c(sc(NC(=O)COC(=O)c3ccc(O)cc3)c2C#N)C1 (stereo not drawn) 39.8 µM [inhibitor, single point]
